From the supplement of paper PMC10126150
Values marked as one replicate rest on one cluster of the flow cell; about a third of the high ones do not repeat.

The sequences below were run on ATP (assay: switch fluorescence ratio, 500 uM ATP over buffer (Cy3 cluster intensity, sum of 5 cycles each) (fold (ratio)); higher = stronger signal-on switching upon ATP binding; sequences stand for … in TCGTCGGCAGCGTCAGATGTGTATAAGAGACAGTTTTTTTTTTTTTTTTTTTTTTTTT…TC). Details: aptamer strand: ATP DNA aptamer (quencher-CACCTGGGGGAGTATTGCGGAGGAAGG + anchor), 100 nM annealed; ATP concentration: 500 uM; one replicate.
In short: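 Exposure to 500 uM ATP lasted 15 min at 22 °C before imaging, and a selection-buffer image was taken beforehand, for Cy3-labelled switching-strand clusters on a modified Illumina MiSeq flow-cell annealed to 100 nM quencher-labelled ATP aptamer. Five buffer/ATP cycles were run with NaOH stripping and re-annealing between them. The fluorescence ratio per cluster is summed target-cycle over summed buffer-cycle Cy3 intensity, averaged per switch-domain sequence. Clusters outside 100-1000 RFU were excluded.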
In the case of TTTCCAGGGG, the switch fluorescence ratio is reported as 1.47.
TTTCCATTTC gave a switch fluorescence ratio of 0.994.
In the case of TTTCCGAAAA, the switch fluorescence ratio is reported as 1.01.
TTTCCGAGC was tested, and the switch fluorescence ratio was 1.51.
TTTCCGGAAA showed a switch fluorescence ratio of 0.976.
Work on TTTCCGGGAG yielded a switch fluorescence ratio of 1.04.
TTTCCGGTAT showed a switch fluorescence ratio of 1.06.
Work on TTTCCTAAGA yielded a switch fluorescence ratio of 1.06.
With TTTCCTGCTT the switch fluorescence ratio was 0.931.
In the case of TTTCCTTAGA, the switch fluorescence ratio is reported as 0.995.
With TTTCGAAAGC the switch fluorescence ratio was 1.5.
TTTCGAGAAT was tested, and the switch fluorescence ratio was 0.986.
Work on TTTCGAT yielded a switch fluorescence ratio of 0.971.
TTTCGGATA gave a switch fluorescence ratio of 1.06.
Sequence TTTCGGATCC has a switch fluorescence ratio of 0.994.
In the case of TTTCGGCCA, the switch fluorescence ratio is reported as 0.993.
In the case of TTTCGGGGAG, the switch fluorescence ratio is reported as 0.976.
In the case of TTTCGGTCCG, the switch fluorescence ratio is reported as 1.03.
TTTCGTTGTT was tested, and the switch fluorescence ratio was 0.991.
TTTCTCAGCG was tested, and the switch fluorescence ratio was 0.996.
TTTCTCCAGT showed a switch fluorescence ratio of 1.01.
Work on TTTCTCCCGT yielded a switch fluorescence ratio of 0.969.
TTTCTCCTGC gave a switch fluorescence ratio of 1.23.
In the case of TTTCTCGTGT, the switch fluorescence ratio is reported as 0.97.
TTTCTGACAA was tested, and the switch fluorescence ratio was 1.73.
TTTCTGGCCT was tested, and the switch fluorescence ratio was 1.01.
In the case of TTTCTTGTGG, the switch fluorescence ratio is reported as 1.
With TTTGAAGCC the switch fluorescence ratio was 1.05.
Sequence TTTGAAGCGG has a switch fluorescence ratio of 0.972.
In the case of TTTGACAACG, the switch fluorescence ratio is reported as 1.03.
Sequence TTTGACCCGC has a switch fluorescence ratio of 1.1.
With TTTGACGTT the switch fluorescence ratio was 1.09.
For TTTGAGCGCG, the switch fluorescence ratio was 1.01.
With TTTGAGTTAT the switch fluorescence ratio was 1.01.
Work on TTTGATCGAA yielded a switch fluorescence ratio of 1.01.
In the case of TTTGATCTCC, the switch fluorescence ratio is reported as 1.03.
TTTGATTATG was tested, and the switch fluorescence ratio was 1.02.
TTTGCATAGT gave a switch fluorescence ratio of 1.01.
With TTTGCATT the switch fluorescence ratio was 1.09.
In the case of TTTGCCCGAT, the switch fluorescence ratio is reported as 1.02.
For TTTGCCGGGC, the switch fluorescence ratio was 0.968.
Sequence TTTGCGCAGT has a switch fluorescence ratio of 1.15.
Work on TTTGCGCGAT yielded a switch fluorescence ratio of 1.61.
TTTGCGGTTC showed a switch fluorescence ratio of 1.57.
TTTGCGTTG was tested, and the switch fluorescence ratio was 0.979.
TTTGCTCAAT was tested, and the switch fluorescence ratio was 1.03.
TTTGCTCAGT was tested, and the switch fluorescence ratio was 0.98.
Sequence TTTGCTGTT has a switch fluorescence ratio of 1.02.
TTTGCTTGAC showed a switch fluorescence ratio of 1.
In the case of TTTGCTTGTC, the switch fluorescence ratio is reported as 1.02.
With TTTGGCGATC the switch fluorescence ratio was 1.07.
TTTGGCGCG was tested, and the switch fluorescence ratio was 1.01.
For TTTGGCTC, the switch fluorescence ratio was 1.
TTTGGCTGCA showed a switch fluorescence ratio of 1.19.
Work on TTTGGGCTCA yielded a switch fluorescence ratio of 0.968.
TTTGGTGCGA showed a switch fluorescence ratio of 0.982.
TTTGTAAACA gave a switch fluorescence ratio of 2.03.
Sequence TTTGTAGATT has a switch fluorescence ratio of 0.98.
TTTGTAGGTC gave a switch fluorescence ratio of 1.01.
In the case of TTTGTATAGC, the switch fluorescence ratio is reported as 0.992.
In the case of TTTGTATGCC, the switch fluorescence ratio is reported as 1.01.
Work on TTTGTCATCC yielded a switch fluorescence ratio of 1.
With TTTGTCCTTC the switch fluorescence ratio was 1.08.
With TTTGTCGCTA the switch fluorescence ratio was 1.
TTTGTCGTGA showed a switch fluorescence ratio of 0.99.
TTTGTGAGCT gave a switch fluorescence ratio of 0.966.
TTTGTGATAC was tested, and the switch fluorescence ratio was 1.7.
For TTTGTGCCA, the switch fluorescence ratio was 0.987.
Sequence TTTGTGCGGC has a switch fluorescence ratio of 1.05.
With TTTGTGGCTC the switch fluorescence ratio was 1.05.
With TTTGTGGGCA the switch fluorescence ratio was 0.986.
For TTTGTGTGA, the switch fluorescence ratio was 1.08.
TTTTAAAAG gave a switch fluorescence ratio of 0.996.
For TTTTAACTCA, the switch fluorescence ratio was 1.02.
TTTTAAGTCA was tested, and the switch fluorescence ratio was 0.97.
Work on TTTTACACGC yielded a switch fluorescence ratio of 1.01.
Work on TTTTACAGGG yielded a switch fluorescence ratio of 0.999.
In the case of TTTTACCCCC, the switch fluorescence ratio is reported as 1.81.
For TTTTACGTT, the switch fluorescence ratio was 0.976.
Sequence TTTTAGACCC has a switch fluorescence ratio of 1.
In the case of TTTTAGAGAC, the switch fluorescence ratio is reported as 1.03.
TTTTATGATG was tested, and the switch fluorescence ratio was 0.973.
For TTTTCAAGGC, the switch fluorescence ratio was 1.02.
Work on TTTTCCTTGA yielded a switch fluorescence ratio of 0.993.
With TTTTCGGAAT the switch fluorescence ratio was 1.06.
TTTTCGGAT showed a switch fluorescence ratio of 0.988.
With TTTTCGTAAG the switch fluorescence ratio was 0.998.
Sequence TTTTCTAATA has a switch fluorescence ratio of 0.951.
TTTTCTATAA was tested, and the switch fluorescence ratio was 1.01.
TTTTCTGAA showed a switch fluorescence ratio of 1.01.
For TTTTCTGCAG, the switch fluorescence ratio was 1.02.
TTTTCTTCAG showed a switch fluorescence ratio of 0.998.
Work on TTTTGACCCA yielded a switch fluorescence ratio of 1.02.
In the case of TTTTGAGCGC, the switch fluorescence ratio is reported as 1.04.
With TTTTGATAGG the switch fluorescence ratio was 0.945.
Work on TTTTGCGGTA yielded a switch fluorescence ratio of 1.03.
TTTTGCTTAG showed a switch fluorescence ratio of 1.01.
TTTTGGTGAT was tested, and the switch fluorescence ratio was 1.01.
TTTTGTAAG showed a switch fluorescence ratio of 1.01.
With TTTTGTATGC the switch fluorescence ratio was 0.984.
Work on TTTTGTCGA yielded a switch fluorescence ratio of 0.962.
TTTTGTGAA gave a switch fluorescence ratio of 1.
For TTTTGTGTCC, the switch fluorescence ratio was 0.966.
Work on TTTTTACCCC yielded a switch fluorescence ratio of 1.13.
TTTTTATCGA was tested, and the switch fluorescence ratio was 0.976.
Work on TTTTTCCACT yielded a switch fluorescence ratio of 0.963.
With TTTTTCGGTC the switch fluorescence ratio was 0.959.
Work on TTTTTCTCAC yielded a switch fluorescence ratio of 1.03.
TTTTTGCAGG was tested, and the switch fluorescence ratio was 1.03.
For TTTTTGCTG, the switch fluorescence ratio was 0.991.
TTTTTGTCC gave a switch fluorescence ratio of 0.975.
For TTTTTGTGTC, the switch fluorescence ratio was 0.926.
TTTTTTCGC showed a switch fluorescence ratio of 1.03.
TTTTTTCGCC showed a switch fluorescence ratio of 1.11.
For TTTTTTGACA, the switch fluorescence ratio was 1.
